From PubChem BioAssay AID686978 (National Center for Advancing Translational Sciences (NCATS), 2013)
Several values for one entry are separate records, joined by “and”; a condition that tells them apart may be missing. Equal entries are not always repeated. Among all 420,000 compounds or so, about 64,000 (15%) were called active. Inconclusive means that the source gave no clear call. Such entries were picked first, then a sample of the others. Calls come from the whole dose curve; as a rule, active = well fitted inhibition curve with a large enough effect; inconclusive = small, poorly fitted or top-dose-only effect; inactive = flat fitted curve, though single readings scatter. No potency is given beside an inconclusive call; the fits are too rough.

Experiment: qHTS for Inhibitors of human tyrosyl-DNA phosphodiesterase 1 (TDP1): qHTS in cells in absence of CPT; note: nearly all actives have a fitted effect of over 55% in size
Details: DT40 Tdp1-/- hTDP1 cells, no CPT, ATP luminescence, 48 h; activity change, negative = growth inhibition: at 46.2 µM (top of the series) unless noted
In short: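 Camptothecin absent (DMSO only). Human TDP1-complemented DT40 knockout cells, 400 cells/well, 37 °C for minimum 48 hr; ATP measured via CellTiter-Glo, 30 min dark incubation, luminescence.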
% is set by controls: 0 for no effect and ±100 for the full control effect; potency is the fitted concentration of half-maximal effect; tags give direction and shape of the fitted curve.

Compound	Potency	activity change, negative = growth inhibition
C=Cc1ccc(C(=O)NC2CCCN(Cc3ccccc3F)C2)cc1 (centres undefined)	inconclusive [inhibitor, single point]	
CCn1cc(C(=O)Nc2ccc(C)c([N+](=O)[O-])c2)cn1	inactive	
CN1CCN(C(c2cccc(C(F)(F)F)c2)c2nnnn2C(C)(C)C)CC1 (centres undefined)	inactive	
O=C(NCc1ccco1)c1cc(S(=O)(=O)N2CCCCC2)ccc1Cl	inconclusive [inhibitor, single point]	
Cc1cc(Cl)cc(C)c1OCCCCn1ccnc1	inconclusive [inhibitor, single point]	
COc1ccc(-c2onc(C)c2C)cc1S(=O)(=O)NC1CCCCC1	inconclusive [inhibitor, single point]	
CCn1cc(C(=O)N(C)Cc2ccccc2)c(=O)c2cc(S(=O)(=O)N3CCCCC3)ccc21	inactive	
Cc1cccc(N2CCN(C(=O)Cn3nc(C)c4sc5ccccc5c4c3=O)CC2C)c1 (centres undefined)	inconclusive [inhibitor, partial curve]	
CC(C)C[C@@H](CO)N(Cc1ccccc1)S(=O)(=O)N(Cc1ccccc1)[C@@H](CO)CC(C)C	active: 17.8 µM and active: 18.4 µM	
O=C(c1ccccc1)N(c1ccccc1)c1nccc2ccccc12	inconclusive [inhibitor, single point]	
CN(CC(=O)NCc1ccccc1Cl)CC(=O)Nc1cccc(F)c1	inconclusive [inhibitor, partial curve]	
Oc1c(Br)cc(Br)cc1/C=N/n1c(-c2ccccc2)n[nH]c1=S	inactive	
c1ccc(-c2nnn(C34CC5CC(CC(C5)C3)C4)n2)cc1	inconclusive [inhibitor, single point]	
Cc1ccc(N(C(=O)NC2CCCCC2)C2=NCCCCC2)cc1	inconclusive [inhibitor, single point]	
O=C(c1ccccc1)N1CCC(c2nc(-c3ccc(S(=O)(=O)NCC4CCCO4)cc3)no2)CC1 (centres undefined)	active: 10 µM	
COC(=O)C1=C(c2ccccc2)c2ccccc2S(=O)(=O)N1CC(=O)Nc1cc(C)ccc1C	inconclusive [inhibitor, single point]	
CC1(CC(=O)Nc2ccccc2)NC(=S)N(c2ccccc2)N1 (centres undefined)	inactive	
CCOC(=O)Cn1nc(N2CCN(c3ccc(F)cc3)CC2)ccc1=O	inconclusive [inhibitor, partial curve]	
O=C(CSc1nnnn1C1CCCC1)Nc1ccccc1F	inactive	
COc1ccc(NC(=O)C2CCN(S(=O)(=O)c3ccc4c(c3)NC(=O)C(C)S4)CC2)cc1 (centres undefined)	inconclusive [inhibitor, single point]	
Nc1cc2c(cc1Br)[nH]c(=O)c1ccccc12	inconclusive [inhibitor, single point]	
CCOC(=O)c1sc(S(C)(=O)=O)c2c1CC(C)(C)C/C2=N/O	inconclusive [inhibitor, single point]	
O=C(CN1CCN(Cc2ccc(Cl)cc2)CC1)N/N=C/c1c[nH]c2ccccc12	inactive	

Compound	Potency	activity change, negative = growth inhibition
O=C1CCC([N+](=O)[O-])C(C2CC=CCC2)N1 (centres undefined)	inactive	
COC(CN(C)C(C(=O)NC1CCCCC1)c1ccccc1)OC (centres undefined)	inactive	
Cc1ccc2nc(-c3ccc(C)o3)c(Nc3ccc4c(c3)OCO4)n2c1	inconclusive [inhibitor, single point]	
Cc1c(C(=O)N2CCOCC2)oc2c1-c1nn(CC(=O)NCc3ccccc3)cc1CC2	inconclusive [inhibitor, single point]	
CN1CCCN(S(=O)(=O)c2ccc3ccccc3c2)CC1		inconclusive: -30.9% [inhibitor]
O=C(Nc1cccn2nc(COCCO)nc12)C(c1ccccc1)c1ccccc1	inactive	
O=C(c1ccc(Cn2c(=S)[nH]c3ccc(Br)cc3c2=O)cc1)N1CCN(C2CCCCC2)CC1	inconclusive [inhibitor, partial curve]	
CCOC(=O)C1CCCN(C(=O)C2CCN(S(=O)(=O)c3ccc(Cl)c(C(F)(F)F)c3)CC2)C1 (centres undefined)	inconclusive [inhibitor, single point]	
Cc1cccc(N2C(=O)C(Cl)=C(Nc3c(C)n(C)n(-c4ccccc4)c3=O)C2=O)c1C	inconclusive [inhibitor, partial curve]	
CC(Sc1nc2ccccc2s1)C(=O)Nc1nnc(C(C)C)s1 (centres undefined)	inconclusive [inhibitor, single point]	
CCCn1c(N)c(C(c2ccc(C(=O)OC)cc2)N2CCN(c3ccccc3)CC2)c(=O)[nH]c1=O (centres undefined)	inconclusive [inhibitor, single point]	
O=C1SC(SCc2ccccc2Cl)=N/C1=C\c1ccc(C(=O)O)cc1	inactive	
O=S(=O)(c1ccc(Cl)cc1)N1CCN(CCc2ccncc2)CC1	inconclusive [inhibitor, single point]	
Cc1ccc(OS(=O)(=O)c2ccc(-c3csc(C)n3)s2)c(C)c1	inconclusive [inhibitor, single point]	
Cc1ccc(C2=NN(Cc3nnc(-c4ccccc4)o3)C(=O)SC2)cc1	inconclusive [inhibitor, partial curve, poor fit]	
C/C(=N\NC(=O)C(=O)N/N=C(\C)c1cccc(O)c1)c1cccc(O)c1	inactive	
COc1ccc(OC)c(NC(=S)N2CCN(C(=O)C3CCCO3)CC2)c1 (centres undefined)	inactive	
O=C(c1ccc(Cl)c(S(=O)(=O)N2CCCCCC2)c1)N1CCOCC1	inactive	
Cc1ccc2c(c1)N(CC(=O)NCc1cccc(Cl)c1)C(=O)c1cccnc1O2	inconclusive [inhibitor, single point]	
O=S(=O)(c1ccc2c(c1)OCCO2)N1CCN(c2nc(-c3ccccc3)nc3ccccc23)CC1	inconclusive [inhibitor, single point]	
Cc1oc(S(=O)(=O)N2CCCC2)cc1C(=O)Nc1ccc(F)cc1	inconclusive [inhibitor, partial curve, poor fit]	
CC(=O)Nc1ccc(C(=O)OCc2ccc(F)cc2)cc1	inconclusive [inhibitor, single point]	
Cc1ccc(-c2nnc(SCc3ccc(C#N)cc3)n2Cc2ccco2)cc1	inconclusive [inhibitor, single point]	

Compound	Potency	activity change, negative = growth inhibition
S=C(NCc1cccnc1)Nc1cccc(Cl)c1	inconclusive [inhibitor, single point]	
O=[N+]([O-])c1ccccc1/C=C/CN1CCC(O)CC1	inactive	
Cc1ccc(NC(=O)Cc2nnc(SCC(=O)c3ccc(Br)cc3)n2C)cc1	inconclusive [inhibitor, single point]	
CCOC(=O)c1nnc(-c2cccs2)nc1Oc1ccccc1C(=O)OC	inactive	
CC1CCCC(NC(=O)CCNC(=O)c2ccc(Br)cc2)C1C (centres undefined)	inactive	
O=C(CCNC(=O)c1ccccc1)Nc1cccnc1		inconclusive: -31.3% [inhibitor]
CC1(C(=O)NS(=O)(=O)c2ccc(C#N)cc2)CCN1C(=O)Cc1ccc(Cl)cc1Cl (centres undefined)	inactive	
CCn1cc(S(=O)(=O)c2ccccc2)c(=O)c2cc(F)c(N3CCCCCC3)cc21	inconclusive [inhibitor, single point]	
COCCNC(=O)Cn1cc(/C=C(\C#N)C(=O)NC2CCCC2)c2ccccc21	inconclusive [inhibitor, full curve, poor fit]	
CCN(C(=O)CN(C)Cc1cccc(Cl)c1Cl)c1c(N)n(Cc2ccccc2)c(=O)[nH]c1=O	inconclusive [inhibitor, single point]	
CC(=O)c1cccc(NC(=O)c2ccc3c(c2)CCN3S(=O)(=O)c2ccccc2)c1	active: 11.6 µM and active: 20.6 µM	
CN(C(=O)c1ccccn1)c1nnc(-c2ccccn2)s1	inactive	
CCC(C)(C)n1nnnc1C(c1ccc(C)cc1)N1CCC(C)CC1 (centres undefined)	inconclusive [inhibitor, single point]	
O=C(COc1ccccc1F)NC12CC3CC(CC(C3)C1)C2	inconclusive [inhibitor, single point]	
Cc1cc(C(=O)N/N=C/c2cc(Cl)cc([N+](=O)[O-])c2O)c2ccccc2n1	inconclusive [inhibitor, single point]	
COc1ccc(Cl)cc1NC(=O)COC(=O)c1cc(C)oc1C	active: 3.26 µM	
CCOc1ccc(NS(=O)(=O)c2ccc(C(=O)N(CC)CC(=O)NCc3cccs3)cc2)cc1	inconclusive [inhibitor, single point]	
O=C(CSc1ncn[nH]1)N1CCOCC1	inactive	
COc1ccc(CN(CCC(C)C)S(=O)(=O)c2ccccc2Br)cc1	inconclusive [inhibitor, single point]	
Cc1ccc(NS(=O)(=O)c2ccc(C(=O)N3CCCC(C(F)(F)F)C3)cc2)cc1 (centres undefined)	inconclusive [inhibitor, single point]	
COc1cccc2cc(-c3cc(=O)oc4ccc(O)cc34)oc12	inconclusive [inhibitor, partial curve, poor fit]	
CCOc1ccc(CCNC(=O)c2cc3cc4ccc(OC)cc4nc3s2)cc1OCC	inconclusive [inhibitor, full curve, poor fit]	
CC1(C)C(=O)Nc2ccccc2N1C(=O)COC(=O)c1ccc(Cl)c(S(=O)(=O)NCc2ccccc2)c1	inconclusive [inhibitor, single point]	
